# Test results as given in PubChem BioAssay AID686978 (National Center for Advancing Translational Sciences (NCATS), 2013).
# Hit rate of the full screen: of about 420,000 compounds, about 64,000 (15%) were called active. This list was built around the results that the source calls inconclusive (neither active nor inactive); the mix of calls is not that of the screen. Calls come from the whole dose curve; as a rule, active = well fitted inhibition curve with a large enough effect; inconclusive = small, poorly fitted or top-dose-only effect; inactive = flat fitted curve, though single readings scatter. Potencies of inconclusive entries are left out as doubtful fits.
# Assay: qHTS for Inhibitors of human tyrosyl-DNA phosphodiesterase 1 (TDP1): qHTS in cells in absence of CPT; note: nearly all actives have a fitted effect of over 55% in size
# Details: DT40 Tdp1-/- hTDP1 cells, no CPT, ATP luminescence, 48 h; activity change, negative = growth inhibition: at 46.2 µM (top of the series) unless noted
# Procedure, shortened: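 A cellular qHTS used chicken DT40 cells lacking endogenous Tdp1 but carrying stably transfected human TDP1. Compounds were applied without camptothecin, and cell growth kinetics were judged by ATP-dependent luminescence after ≥48 hr.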
# % is set by controls: 0 for no effect and ±100 for the full control effect; potency is the fitted concentration of half-maximal effect; tags give direction and shape of the fitted curve.
SMILES,Potency,"activity change, negative = growth inhibition"
CCc1ccccc1NC(=O)C(=O)NCC(c1cccnc1)N1CCc2ccccc21 (stereo not given),active: 20.6 µM,–
COc1ccccc1C1CC(c2ccccc2)=NN1C(=S)Nc1ccccc1 (stereo not given),"inconclusive [inhibitor, single point]",–
COc1ccc(-c2nnc3ccc(SCC(=O)Nc4nccs4)nn23)cc1OC,"inconclusive [inhibitor, partial curve]",–
CCOc1ccc(-c2cc(C(=O)N3CCN(c4cccc(C)c4)C(C)C3)c3ccccc3n2)cc1 (stereo not given),active: 7.31 µM,–
O=[N+]([O-])c1ccccc1/C=C/CN1CCCC(CO)C1 (stereo not given),inactive,–
CCn1nnc2c(N3CCCC3)ncnc21,"inconclusive [inhibitor, single point]",–
N#C/C(=C\c1cccc(Cl)c1)C(=O)c1ccccc1,"inconclusive [inhibitor, single point]",–
Cc1ccc(C)c(N2CCN(C(=O)CCCCCn3c(=O)[nH]c4ccccc4c3=O)CC2)c1,"inconclusive [inhibitor, single point]",–
COc1ccc(OCC(O)CN2CCC(CN3C(=O)c4cccc5cccc(c45)C3=O)CC2)cc1 (stereo not given),active: 20.6 µM,–
Cc1ccc(C)c(Cn2c(SCC(=O)N(C)Cc3ccccc3)nc3ccccc32)c1,active: 25.9 µM,–
Cc1ccc(S(=O)(=O)N2CCCN(S(=O)(=O)c3ccc(C)c(C)c3)CC2)cc1C,active: 18.4 µM,–
Cc1cccc(CCNC(=O)Cc2ccc(NC3=NC4CS(=O)(=O)CC4S3)cc2)c1 (stereo not given),inactive,–
COc1ccc2c(c1)Cc1sc(NC(=O)c3cccc(F)c3)nc1-2,"inconclusive [inhibitor, partial curve, poor fit]",–
Cc1ccc(/C=N/Nc2nncc(-c3ccccc3)n2)o1,"inconclusive [inhibitor, single point]",–
COc1ccccc1C(=O)Nc1cccc(N2CCC(NCc3cnn(-c4ccccc4)n3)CC2)c1,"inconclusive [inhibitor, single point]",–
O=C(COC(=O)c1cccc(F)c1)Nc1cccnc1Cl,inactive,–
Nc1cc[n+](CC(=O)c2ccccc2)cc1,"inconclusive [inhibitor, partial curve, poor fit]",–
c1cc2c(cnc3cscc32)s1,inactive,–
Cc1c2c(nc3ccccc13)OCC2,inactive,–
CCC(C)Nc1nc(C)nc2c1oc1ccccc12 (stereo not given),active: 16.4 µM,–
CN1CCN(c2nc3c(c(=O)[nH]c(=O)n3C)n2CCOc2ccccc2)CC1,"inconclusive [inhibitor, partial curve]",–
COc1ccc(CN(C(=O)c2snc(C(N)=O)c2N)C(C(=O)NC2CCCC2)c2ccc(OC)c(OC)c2)cc1 (stereo not given),"inconclusive [inhibitor, single point]",–
CCOC(=O)c1c(C)[nH]c(C)c1C(=O)CN1C(=O)NC2(CCC(C)CC2)C1=O (stereo not given),inactive,–
CCCc1cc(C(=O)Nc2sc(C)c(CC)c2C#N)no1,"inconclusive [inhibitor, partial curve]",–
COc1ccc(-c2noc3c2-c2nc(-c4ccc(C)cc4)sc2CC3)cc1,"inconclusive [inhibitor, single point]",–

SMILES,Potency,"activity change, negative = growth inhibition"
COc1ccccc1CNC(=O)c1ccc(-c2ccccc2)cc1,inactive,–
CC1(C)C(\C=C/C=C\C=C/C=C2/N(CCCCS(=O)(=O)O)c3ccc4ccccc4c3C2(C)C)=[N+](CCCCS(=O)(=O)[O-])c2ccc3ccccc3c21,"inconclusive [inhibitor, single point]",–
Cc1cccc(-n2c(N)c(C(=O)NCCN3CCOCC3)c3nc4ccccc4nc32)c1,active: 18.4 µM,–
O=C(c1ccc(Br)o1)N1CCN(c2ccccc2F)CC1,–,inconclusive: -31.4% [inhibitor]
COC(=O)[C@@]1(C)[C@H]2C(=O)N(Cc3ccccc3)C(=O)[C@H]2[C@H]2CN=C(SCc3ccc(C)cc3)N21,"inconclusive [inhibitor, single point]",–
Cc1ccc(S(=O)(=O)Nc2c3ccccc3nc(=O)n2-c2ccccc2)cc1,"inconclusive [inhibitor, single point]",–
CCCCN1CC[C@H]2C=CC[C@@H](C(=O)Nc3ccccc3)[C@H]2C1=O,inactive,–
COc1ccc(C(=O)Nc2ccc3oc(-c4ccc(OC)cc4)nc3c2)cc1,inactive,–
Cc1ccc(NC(=O)NCC2CCN(Cc3cccc(Cl)c3)CC2)cc1Cl,active: 16.4 µM,–
CC1CC(C)CN(C(=O)CSc2nc(Cc3cccs3)nc3ccccc23)C1 (stereo not given),active: 20.6 µM,–
Cc1onc(-c2ccccc2)c1C(=O)c1c[nH]c(C(=O)NCCCN2CCOCC2)c1,inactive,–
O=C(NC(c1ccc(-c2ccccc2)cc1)c1cnccn1)C1CCN(CCCOc2ccccc2)CC1 (stereo not given),active: 13 µM,–
O=C(C[n+]1cc(Br)cc(Br)c1)c1ccccc1,inactive,–
Fc1ccc(-c2csc(-c3ccccn3)n2)cc1F,inactive,–
COc1cccc(-n2c(-c3ccco3)nc3c(cnn3-c3ccc(C)cc3)c2=O)c1,active: 14.6 µM,–
CCN(CC)CCOC(=O)c1ccc(Cl)cc1Cl,inactive,–
CCn1c(C(C)C)n[nH]c1=S,inactive,–
CN(C)C(=O)c1cccc(-c2cccc3nccn23)c1,"inconclusive [inhibitor, full curve, poor fit]",–
Cc1cccc(NC(=O)NCc2cccnc2)c1C,inactive,–
CCOc1ccc(C(=O)c2cn(Cc3ccc(OC)cc3)c3cc(OC)c(OC)cc3c2=O)cc1,active: 18.4 µM,–
COCc1ccc(C(=O)N2CCCC(C(=O)c3ccc(Cl)cc3C)C2)o1 (stereo not given),"inconclusive [inhibitor, single point]",–
N#Cc1cnc2cc(-c3ccccc3)nn2c1N,inactive,–
CCc1nnc(NC(=O)c2cc3c(s2)CCCCC3)s1,"inconclusive [inhibitor, partial curve, poor fit]",–
COc1ccc(S(=O)(=O)N2CCOC23CCN(S(=O)(=O)c2ccc([N+](=O)[O-])cc2)CC3)cc1,"inconclusive [inhibitor, partial curve]",–
CCCn1nnnc1NC(=O)COc1ccc(CC)cc1,inactive,–

SMILES,Potency,"activity change, negative = growth inhibition"
CC1=C(C(=O)N(C(C)C)C(C)C)CC(CC(=O)NCc2cccc3ccccc23)C(=O)N1Cc1ccc(C(C)(C)C)cc1 (stereo not given),"inconclusive [inhibitor, single point]",–
COc1ccc(-c2nc3ccc(C)cn3c2NCc2ccccc2)cc1SC1CCCCC1,active: 23.1 µM,–
C=CCn1cc(/C=N\NC(=O)c2cc3c(ccc4ccccc43)o2)c2ccccc21,"inconclusive [inhibitor, single point]",–
CC(NC(=O)c1ccccc1)c1nnc(SCC(=O)NC2CCCC2)n1C (stereo not given),inactive,–
CC(O)/C=C/c1ccc2ccccc2n1 (stereo not given),"inconclusive [inhibitor, single point]",–
O=C(CN1c2cccc3cccc(c23)S1(=O)=O)N1CCN(c2ccc(F)cc2)CC1,inactive,–
CC(C)c1cccc(C2=CC(=O)C[C@H](c3ccc(F)cc3)C2)c1,"inconclusive [inhibitor, single point]",–
CC(C)(C)c1cc(/C=C2\NC(=O)NC2=O)cc(C(C)(C)C)c1O,"inconclusive [inhibitor, single point]",–
COc1ccc(C=NNc2nc3ccccc3s2)cc1,"inconclusive [inhibitor, partial curve]",–
COc1ccc(OC)c(CN2C(=O)CCC2(C)c2nnnn2-c2c(C)cccc2C)c1 (stereo not given),inactive,–
CC1=C(C(=O)NCc2ccc(C)cc2)C2(CCCCC2)OC1=O,"inconclusive [inhibitor, single point]",–
Cc1ccc2cccc(NC(=O)C(C)Oc3ccc(C)c(C)c3)c2n1 (stereo not given),inactive,–
COC(=O)[C@H](C)NC(=O)Nc1cccc(Br)c1,inactive,–
O=C(NCc1ccncc1)c1cccc(S(=O)(=O)Nc2ccc(SC(F)F)cc2)c1,"inconclusive [inhibitor, single point]",–
CCCOc1ccc(C2C(=O)N(C3CCCCC3)CC(=O)N2CCC)cc1OC (stereo not given),"inconclusive [inhibitor, partial curve, poor fit]",–
CCOc1ccc(NC(=O)CSc2ncc3c(n2)-c2cc(Cl)ccc2N(C)S3(=O)=O)cc1,inactive,–
O=C(O)c1cc(O)c2c(c1)C(=O)c1cccc(O)c1C2=O,"inconclusive [inhibitor, single point]",–
Cc1nn(C2CCS(=O)(=O)C2)c(Cl)c1/C=C/C(=O)OCC(=O)c1c[nH]c2ccccc12 (stereo not given),"inconclusive [inhibitor, single point]",–
COc1cc(CN2CCC(n3nccc3NC(=O)CCCc3ccccc3)CC2)ccc1F,"inconclusive [inhibitor, single point]",–
CCCCNC(=O)NNC(=O)C1CC1(c1ccccc1)c1ccccc1 (stereo not given),inactive,–
COc1ccccc1Cc1c(C2CCCCC2)nc2ccc(Br)cn12,active: 6.51 µM,–
Cc1noc(Cn2c(=O)c3ccccc3n(CC(=O)Nc3ccc(Cl)cc3)c2=O)n1,"inconclusive [inhibitor, partial curve]",–
Cc1cccc(C)c1OCc1cc(C(=O)N(C)Cc2cc(C3CC3)n[nH]2)no1,"inconclusive [inhibitor, single point]",–
CC(=O)c1ccc(Nc2nc(C(N)C3CCCCC3)cs2)cc1 (stereo not given),active: 11.6 µM,–
CCN(C[C@H]1N[C@@](Cc2ccccc2)(C(=O)OC)[C@H]2C(=O)N(C)C(=O)[C@@H]12)S(=O)(=O)c1ccc(OC)cc1,active: 14.6 µM,–
